This is an account of results in PubChem BioAssay AID488969 (Vanderbilt High Throughput Screening Facility, 2010).

Whole data set: some 110,000 compounds, median “z-score” near -0.1, cut for the highest 2% near 2. The list shows a part of the results. Calls of active or inactive are those of the source.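 Rule for the calls: active = z-score in the third read window above 3 or below -3; inactive = the rest.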

In the experiment the target is Metabotropic glutamate receptor 8 (Rattus norvegicus) (UniProt P70579). As to the kind of experiment: rat mGluR8 modulators via GIRK flux, primary screen, cell-based, thallium flux, HTS (AID 488969). Conditions: HEK293 rat mGluR8, GIRK (G protein-gated inwardly rectifying potassium channel) thallium flux, FluoZin2; at 10 µM; stronger effect = higher value; submaximal glutamate (EC20) added with thallium.
UniProt P70579, sequence (P70579 whole entry, looked up): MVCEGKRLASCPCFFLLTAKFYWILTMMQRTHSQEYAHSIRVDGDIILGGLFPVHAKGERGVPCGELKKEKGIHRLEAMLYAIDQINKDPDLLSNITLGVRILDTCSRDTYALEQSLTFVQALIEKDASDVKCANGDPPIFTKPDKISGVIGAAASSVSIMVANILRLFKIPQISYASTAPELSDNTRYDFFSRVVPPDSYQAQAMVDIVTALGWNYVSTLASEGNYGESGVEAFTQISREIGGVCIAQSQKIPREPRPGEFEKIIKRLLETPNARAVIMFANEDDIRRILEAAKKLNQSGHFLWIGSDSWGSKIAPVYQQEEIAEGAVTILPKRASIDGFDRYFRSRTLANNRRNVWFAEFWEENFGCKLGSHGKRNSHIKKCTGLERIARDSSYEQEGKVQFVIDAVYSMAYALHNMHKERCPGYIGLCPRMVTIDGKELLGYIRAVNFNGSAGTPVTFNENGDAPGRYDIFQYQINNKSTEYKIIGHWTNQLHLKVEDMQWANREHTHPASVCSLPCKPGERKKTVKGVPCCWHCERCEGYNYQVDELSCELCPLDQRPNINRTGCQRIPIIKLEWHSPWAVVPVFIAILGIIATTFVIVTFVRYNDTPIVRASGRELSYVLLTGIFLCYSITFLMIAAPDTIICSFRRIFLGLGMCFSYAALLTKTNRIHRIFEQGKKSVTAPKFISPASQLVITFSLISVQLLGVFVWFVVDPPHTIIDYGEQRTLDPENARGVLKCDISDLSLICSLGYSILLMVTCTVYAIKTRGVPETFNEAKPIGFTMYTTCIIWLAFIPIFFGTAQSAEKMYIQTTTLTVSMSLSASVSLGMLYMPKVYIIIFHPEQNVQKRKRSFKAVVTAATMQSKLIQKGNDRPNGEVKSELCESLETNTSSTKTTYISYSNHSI
The compound `O=C(Nc1ccc(C(=O)O)cc1)Nc1cccc([N+](=O)[O-])c1` had a z-score of 0.124.

`COc1cc(SC)ccc1C(=O)NCCCOC(C)C` had a z-score of 0.144.

`O=C(Oc1cccc(NC(=O)c2ccco2)c1)c1cccc(S(=O)(=O)N2CCCC2)c1`: the z-score is -1.16.

As to `Cc1cc(=O)[nH]c(SC(C(=O)O)c2ccccc2)n1` (centres undefined), the z-score was -0.212.

For the compound `COC(=O)c1ccccc1Sc1c(/C=N/OCc2ccc(Cl)cc2)c(C(F)(F)F)nn1C`, the z-score is -0.18.

Consider `CCOC(=O)Cn1nc(/C=C/c2ccc(C(C)C)cc2)ccc1=O`, for which the z-score was -0.0298.

Turning to `O=C(O)CCC(=O)N1N=C(c2cccs2)CC1c1cn(-c2ccccc2)nc1-c1ccccc1` (centres undefined), the z-score was -0.238.

For `COc1ccc(Cc2nc3c4c(ncn3n2)Oc2c(ccc3ccccc23)C4c2ccc(OC)c(OC)c2)cc1` (centres undefined), the z-score was -0.0955.

Compound `CC1CN(C(=O)CN2C(=O)NC3(CCCCCC3)C2=O)CC(C)O1` (centres undefined) registered a z-score of 0.0576.

As for `Nc1c(C(=O)NCCc2ccccc2)nnn1Cc1ccc(Cl)cc1`, the z-score was -0.25.

Consider `Cc1snc(S(=O)(=O)/C(C#N)=N\Nc2ccccc2)c1C#N`, for which the z-score was 0.366.

As for `Cc1cccc(Oc2nc(-c3cccc([N+](=O)[O-])c3)nc3ccccc23)c1C`, the z-score is -0.967.

Regarding `CCNc1nc(NCc2ccccc2)nc(SCC(=O)Nc2ccccc2)n1`, the z-score is -0.745.

Take `CC1(C)CC(C)(c2ccc(O)cc2O)N(c2cccc(Cl)c2)C(=S)N1` (centres undefined): the z-score is 1.48.

For `CN(C)[C@@H]1CCC[C@@H]1OC(=O)C(c1ccccc1)c1ccccc1`, the z-score is 0.33.

On to `Cc1ccc(C)c(NC(=O)C2CCCN2/C=C/C(=O)C(F)(F)F)c1` (centres undefined), for which the z-score is -0.00109.

For the compound `Cc1ccc(NC(=O)CN2C(=O)N/C(=C/c3ccc(C)o3)C2=O)cc1`, the z-score is -0.131.

`C/C(=N\NC(=O)c1ccccc1)c1ccc(N2CCOCC2)cc1`: the z-score was 0.862.

In the case of `O=c1[nH]cc(COCc2ccccc2)c(=O)[nH]1`, the z-score came to 0.0732.

`O=C(NCCCN1CCOCC1)c1ccco1`: the z-score was 0.0886.

In the case of `COc1cc(C2c3c(-c4ccccc4)n[nH]c3C(=O)N2c2ccccc2)ccc1O` (centres undefined), the z-score is -1.29.

With `N#CC1(c2ccc(NC(=O)c3ccccc3F)cc2)CCCC1`, the z-score amounted to 0.629.

For `O=[N+]([O-])c1ccc(Sc2n[nH]c(-c3ccccc3)n2)nc1`, the z-score was -0.0866.

With `CC(Oc1ccccc1)C(=O)Nc1ccccc1O` (centres undefined), the z-score is -0.413.

As for `Cc1ccc(OCC(=O)N2N=C(C(F)(F)F)CC2(O)C(C)(C)C)cc1C` (centres undefined), the z-score was active: 3.56.

As to `O=C1c2ccccc2C(=O)N1c1n[nH]c(CCc2ccccc2)n1`, the z-score was -0.161.

Regarding `COc1ccc(/C=N/Nc2ncnc3scc(-c4ccccc4)c23)cc1OC`, the z-score was -1.18.

In the case of `CCc1ccc(N2C(=O)C3C4CCC(C4=C(C)C)C3C2=O)cc1` (centres undefined), the z-score is -0.173.

For `COc1cccc(CC(NC(C)=O)C(=O)NC2CCN(S(=O)(=O)c3cccc4ccccc34)CC2)c1` (centres undefined), the z-score was 0.0112.

In the case of `O=C(NCC1CCCO1)c1onc(CSc2ccc(F)cc2)c1C(=O)O` (centres undefined), the z-score is -0.16.

With `Cc1cc(NC(=O)C23CCC(C)(c4nc5cc(Cl)c(Cl)cc5nc42)C3(C)C)no1` (centres undefined), the z-score is -0.019.

As for `CCOc1ccc(C2NC(=O)C(C#N)=C(S)N2c2ccc(OC)cc2)cc1OC` (centres undefined), the z-score is -0.527.

For the compound `COc1cccc2cc(C(N)=O)/c(=N/NC(=O)COc3ccc(Cl)cc3)oc12`, the z-score was -0.725.

Consider `CCN(C(=O)c1cc(Cl)ccc1OC)c1ccccc1C`, for which the z-score was -0.578.

Take `O=C(Cn1[nH]c(=O)c2ccccc2c1=O)Nc1ccc(-c2nnc3n2CCCCC3)cc1`: the z-score is -0.0205.

Consider `CCCC(=O)Nc1cc(C)c(NC(=O)c2ccccn2)cn1`, for which the z-score amounted to 0.64.

`CCOc1cc(S(=O)(=O)N2CCC(c3nc4ccccc4s3)CC2)c(OCC)cc1S(=O)(=O)N1CCCCC1` gave a z-score of 0.223.

Take `N#Cc1nc(Cc2ccccc2)oc1NCc1ccccc1Cl`: the z-score was determined as 1.31.

Take `Cc1ccc(CSc2nc3c(c(=O)[nH]c(=O)n3C)n2CCC(C)C)cc1`: the z-score is -0.092.

Turning to `COc1cc(/C=N/n2nnnc2N)ccc1OCc1c(C)no[n+]1[O-]`, the z-score was -0.217.

On to `Cc1cc(N2CCN(c3ccccc3)CC2)nc(NCc2ccccc2)n1`, for which the z-score is 3.

`O=C(NCCOCc1ccc(Cl)cc1)c1ncn[nH]1`: the z-score was -0.386.

Consider `CC(=O)NC1C(Oc2ccc(C)cc2)OC2COC(c3ccco3)OC2C1O` (centres undefined), for which the z-score is -0.122.

Regarding `C=CCOc1ccc2cccc(/C=N/NC(=O)c3cc4cc([N+](=O)[O-])ccc4s3)c2c1`, the z-score is -0.78.

`C#CCSc1nnc(-c2sc3ccccc3c2Cl)o1`: the z-score was 0.182.

Compound `Cn1ccnc1C(=O)c1cc(=O)c2ccccc2o1` showed a z-score of 0.0233.

For the compound `CCN(CC)CCCNC(=O)c1cc(-c2ccc(Cl)cc2)on1`, the z-score was found to be 1.7.

`Cn1c(=O)[nH]c(=O)c2c1nc(N1CCCCC1)n2CCCSc1nc2ccccc2s1` returned a z-score of 0.88.

`OCCCc1nc2n(n1)C(c1ccccc1Cl)C=C(c1cccs1)N2` (centres undefined): the z-score is -1.48.

`CC(C)c1ccc(NC(=O)NC2CCN(CC(=O)Nc3cccc4ccccc34)CC2)cc1`: the z-score was -0.494.

Take `c1ccc(-c2cn3nc(-c4ccccc4)c(-c4ccccc4)nc3n2)cc1`: the z-score was -1.03.

`Nc1ccc2oc(-c3ccc4nc[nH]c4c3)nc2c1`: the z-score was -0.297.

The compound `O=C(CO/N=C1\CCCc2nonc21)Nc1ccccc1Cl` came in with a z-score of 0.126.

Compound `O=C(NCc1ccccc1)C1CC2CCCC(C1)C2=O` (centres undefined) had a z-score of 0.256.

Consider `COc1ccc(Oc2c(C)oc3c(CN4CCOCC4)c(O)ccc3c2=O)cc1`, for which the z-score was -0.179.

For `Cc1ccc(-c2cc3nn(-c4ccccc4)c(N)c3c(=O)o2)cc1`, the z-score was -0.23.

For `Cc1ccc(Nc2c(N)c(=O)oc3ccccc23)cc1`, the z-score was -0.337.

For `COc1cccc(CNc2ccc(F)c(Cl)c2)c1OC`, the z-score was -0.178.

For `Cc1cc(C)nc(/N=C(/NC(=O)Nc2cccc(Cl)c2)Nc2ccccc2)n1`, the z-score is -0.371.

Regarding `CCOC(=O)CN1C(=O)C(C)(C)Oc2ccc(C(=O)NC(C)(C)CC)cc21`, the z-score came to 0.0354.

Regarding `COc1cc(SC)ccc1C(=O)Nc1ccc(C)cc1C`, the z-score is -0.165.

In the case of `CCCc1cc(C(=O)Nc2cccnc2Cl)no1`, the z-score was -0.208.

As for `COc1cc(S(=O)(=O)NCC2CCCO2)ccc1Br` (centres undefined), the z-score is -0.194.

`CCN(CC)CCNc1nc(-c2ccco2)c2c(c1C#N)CC(C)(C)OC2` displayed a z-score of 1.96.

With `Cc1cc(C)c2[nH]c(=O)c(CN(CC3CCCO3)C(=S)Nc3ccccc3)cc2c1` (centres undefined), the z-score was -0.0101.

Consider `CCC(=O)/C=C1/Sc2ccc(OC)cc2N1CC`, for which the z-score was determined as 0.259.

Take `O=C(C1=NN[C@@H]2C(=O)N(c3cccc(F)c3)C(=O)[C@H]12)c1ccc2ccccc2n1`: the z-score was -0.0642.

With `COc1cccc(C2CC(c3cccs3)=NN2C(=O)CSc2nc3ccccc3s2)c1OC` (centres undefined), the z-score was -0.162.

`O=C(CSc1nnc(-c2ccccc2)n1Cc1ccccc1)N1CCCC1`: the z-score came out at 0.192.

As for `CCn1cc(Br)c(C(=O)Nc2ccc(Cl)c(Cl)c2)n1`, the z-score came out at 0.0527.

Compound `Cc1oc(-c2cccs2)nc1CSCC(=O)NC1CC1` had a z-score of 0.245.

`CCc1ccccc1NS(=O)(=O)c1ccc2c(c1)NC(=O)CC(=O)N2`: the z-score was -0.0262.

As for `COc1nc(-c2ccccc2)ccc1-c1noc(-c2cccs2)n1`, the z-score was -0.947.

Consider `C#CC(=O)N(c1ccc(OC)c(OC)c1)C(C(=O)NC1CCCC1)c1cccs1` (centres undefined), for which the z-score was -0.127.

Regarding `COc1ccc(CN2CN(c3ccc(Cl)cc3)C(=O)N(n3cnnc3)C2)cc1`, the z-score worked out at 0.169.

In the case of `Cc1ncoc1C(=O)Nc1ccccc1C(N)=O`, the z-score was found to be 0.25.

Turning to `COc1ccc(OC)c(NS(=O)(=O)c2ccc(Cl)nc2)c1`, the z-score was -0.0503.

Take `O=C(COC(=O)c1ccc(Cl)nc1)NCc1ccc2c(c1)OCO2`: the z-score is -0.251.

With `CCOC(=O)C1(C)/C(=N/Nc2ccccc2Cl)C(=O)C(=O)N1c1ccccc1` (centres undefined), the z-score was -0.24.

Compound `Brc1ccc(-c2csc(-c3ccncc3)n2)cc1` displayed a z-score of 0.161.

The compound `CCOC(=O)c1nnn(-c2nonc2N)c1CN1CCc2ccccc2C1` yielded a z-score of 0.134.

On to `Cc1cccc(NC(=O)CCCCCN2C(=O)c3ccccc3C2=O)n1`, for which the z-score was -0.261.

Consider `Cc1nnc(NC(=O)Cc2ccc(OCc3c(C)noc3C)cc2)s1`, for which the z-score is -0.554.

Turning to `Cn1c(C(=O)NCCCN2CCN(c3ccccc3F)CC2)cc2c(=O)[nH]c3ccccc3c21`, the z-score was -0.0771.

Consider `CCCc1cc(=O)n2[nH]cnc2n1`, for which the z-score is -0.0837.

On to `O=C(CSc1nc2ccc(S(=O)(=O)N3CCOCC3)cc2[nH]1)N1CCOCC1`, for which the z-score was determined as 0.333.

With `CCCC(=O)c1cn(CC(=O)OC)c2ccccc12`, the z-score was -0.272.

`CN1C(=O)c2ccc(C(=O)NCc3ccccc3)cc2C1=O` came in with a z-score of 0.0203.

For the compound `COc1ccc(C2CC(c3ccc(F)cc3)Nc3nc(N)nn32)cc1OC` (centres undefined), the z-score was -0.125.

On to `Cn1nc(C(F)(F)F)c(C(=O)Nc2ccc(F)cc2F)c1Sc1ccc(Cl)cc1`, for which the z-score was -0.294.

For the compound `CCOC(=O)c1cnn(-c2ccccc2)c1NC(=O)CSc1nnc(-c2cccs2)n1CC`, the z-score came to 0.113.

For `C=CCN1C(=O)/C(=C2/Sc3ccccc3N2C)SC1=Nc1ccccc1C`, the z-score is -0.792.

Take `CCCC(=NCc1ccccc1)C1=C(O)C(C(=O)OC)C(C)(C)CC1=O` (centres undefined): the z-score was -0.0583.

In turn, `COC(=O)c1ccccc1NC(=S)N(Cc1ccc2c(c1)OCO2)Cc1cc2cc(C)ccc2[nH]c1=O` gave a z-score of 2.03.

For `Cc1ccc(SCc2cc(=O)[nH]c(/N=C(\N)Nc3ccccc3Sc3ccccc3)n2)cc1`, the z-score is -0.2.

Turning to `C/C(=N\NC(=O)CC1N=C(Cc2ccccc2)NNC1=O)c1ccc(C)cc1` (centres undefined), the z-score was -0.0833.

`CC(=O)N(Cc1ccc(F)cc1)C1=C(NCCc2ccccc2)C(=O)c2ccccc2C1=O` displayed a z-score of 1.71e-05.

Turning to `COC(=O)c1ccccc1NC(=O)c1cnc2sccn2c1=O`, the z-score is -0.174.

With `Cn1ncc(Br)c1C(=O)NC12CC3CC(CC(C3)C1)C2`, the z-score is -0.224.

For `CCOC(=O)c1cnc2cc(-c3ccc(C)cc3)nn2c1-c1ccccc1`, the z-score was -0.28.

As for `CCOC(=O)C1CCN(C(=O)CSc2ccc(Cl)cc2)CC1`, the z-score was -0.702.

Compound `CCCNS(=O)(=O)c1ccc(OCC(=O)N2CCOCC2)cc1` displayed a z-score of 0.196.

In the case of `COC(=O)CSc1nc(NC(C)C)nc(N2CCOCC2)n1`, the z-score is -0.228.

Take `O=C1OCCC1Sc1nnc(-c2ccco2)o1` (centres undefined): the z-score was -0.349.

For `COc1cccc(OC)c1C(=O)n1nc(C)cc1C`, the z-score is -0.189.

For `O=C(COC(=O)C1(c2ccc(Cl)cc2)CCCC1)Nc1ncc(C(F)(F)F)cc1Cl`, the z-score is -0.527.

For `CCCCNC(=O)CC1N=C2c3ccccc3N=C(SCC(=O)Nc3cccc(OC)c3)N2C1=O` (centres undefined), the z-score was -0.275.

With `CCOC(=O)c1ccc(NS(C)(=O)=O)cc1`, the z-score is -0.435.

Take `Cc1cc(NC(=O)CSc2nnc(COc3ccccc3)n2Cc2ccco2)no1`: the z-score is -0.458.
